Drawing on PMC12136788, this text covers binding signal for 14 molecules.

Residue numbers refer to the chain shown, from its start. Some of the results follow.

B1: 52416732_52418160_1049_CDS_ENSG00000069966_ENST00000358784|human|control|control (ssRNA)
RNA: GGGAGUUCUACAGUCCGACGAUCGCUAACGCGGUUUUCAUGUCCAAACAGGAUGGAGACCCGGGACCCUUUGAGAACAUCCCAGACGUUGAUAGUGUAAUCAUUGUAUCCAGCAAACAGCAGGCGACCACUGAGGGAGAAGUCCAACAGAGGAUUGAGCAUCA
B2: 18965736_18965856_2424_3pUTR_ENSG00000165997_ENST00000377275|human|control|control (ssRNA)
RNA: GGGAGUUCUACAGUCCGACGAUCAAUCACUAAGAAAACGGCUUAAAACAAAGUUAAACAACUACUUUCCAAAGCCCAGAAAGCUUUCCUUUGGCCACUGUUCAGUUCAAGGGUGUGCUCCAACUAAAGAUAAAUCAGAAAAAUCAACAGAGGAUUGAGCAUCA
B3: 107600205_107600935_2585_CDS_ENSG00000091136_ENST00000393561|human|control|control (ssRNA)
RNA: GGGAGUUCUACAGUCCGACGAUCGGGCCGGCACUGGCACUGGCCUCCGUUGGGAUCACACACGGAACUUAACGAACCCUGAGGGUCGCAUUCACAAGCCAGGCCUGUCUGGUGUAACAGGGCAGAAAUGCUAAAGAUGAUGUUCAACAGAGGAUUGAGCAUCA
B4: chr8:95500983:95500984:-_ENSG00000164944_ENST00000437199|hu_hu|hu_hu_hu_mus_True|48_88 (ssRNA)
RNA: GGGAGUUCUACAGUCCGACGAUCAGAACACAUCUAUCGAGUAAAGGGAGCGUACAUACGGCCUCUACCACUGCCUCCACUAACAAAACUUUCCUCUGAGCCUCCACUGCCGCUAUUUGUACUAGCCCAGGACGGUCCCAGGCCCAACAGAGGAUUGAGCAUCA
B5: chr10:116622694:116622695:+_ENSG00000151553_ENST00000369248|hu_hu|motif|central (ssRNA)
RNA: GGGAGUUCUACAGUCCGACGAUCAAUAAACCAGAAAAGCUAACACAACAAAAUGAGCAGAUAGGUGUAAAACAAGCCUCGGUGCACAUGCCACACAAUGCGUAUAUGCAAACAUGCUACAUAAAAUAACUUCCUAGAGGGGGUCAACAGAGGAUUGAGCAUCA
B6: chr12:493273:493274:-_ENSG00000073614_ENST00000399788|hu_hu|motif|central (ssRNA)
RNA: GGGAGUUCUACAGUCCGACGAUCUUUUCUCUCUACCACAGGGAUCUUCAGAGUAGAUCCUUGAAGUUCCCAAAAUUUUGCGGGUUGAUCCAAGAAAUCCAAUCUCACUCUGGUCAUUGCCUCAAGUUCAUUCAGGCGCUGGACCAACAGAGGAUUGAGCAUCA
B7: chr6:41757443:41757444:+_ENSG00000214736_ENST00000398881|hu_mus|hu_hu_hu_mus_False|88_88 (ssRNA)
RNA: GGGAGUUCUACAGUCCGACGAUCGAACCGUGCAGAGGCAACAUCUCGGAAUUCUGCGGGGGAUGGGGGGGCAGUGGGGGGGGGUUCAGGCAAGGAGAGGGAGUCAACUUCAGCUGCCACUCAGGUAGGAUCUUGUGGUCACAGCAACAGAGGAUUGAGCAUCA
B8: chr7:75932113:75932114:+_ENSG00000106211_ENST00000248553|hu_hu|hu_hu_hu_mus_False|1_38 (ssRNA)
RNA: GGGAGUUCUACAGUCCGACGAUCCUGCGACCACUCAUCGGGCAACCGGGGCACCCCGAAAGCUUGAUCGAAGAGGCGGCUGUGUGCAGGGUACCAGCGGAAGGGGUGUUCCCAGCUCGGGCUCCGCAGCAGCGAGAGGACGCGCAACAGAGGAUUGAGCAUCA
B9: chr7:140404665:140404666:+_ENSG00000090266_ENST00000247866|hu_hu|hu_hu_hu_mus_False|8_28 (ssRNA)
RNA: GGGAGUUCUACAGUCCGACGAUCUGCUCCUACUCGUCCAGAGAGUUUACAGUGUCAGUCCUCGUCAUCAGGAGGGAUUCCCAGUUCUUCAUCUGUCCACUGUGAAGGAUCAGGAUAUGAAAAGUGACCCAGCACCUCAUCCGACAACAGAGGAUUGAGCAUCA
B10: 22795644_22795764_1879_ncRNA_ENSMUSG00000026784_ENSMUST00000139472|mouse|control|control (ssRNA)
RNA: GGGAGUUCUACAGUCCGACGAUCUAUUUGUGUAAUGGCUUUACAUGUGGGCAUUAACAGUGUAAACAAUACCACAUAUAACCAUCAGGAUACCUCGAUUAGAAUUUAUAGGACUAUAAUGACACUGGUUUAAUUACAUUUAAACAACAGAGGAUUGAGCAUCA
B11: chr22:19452774:19452775:-_ENSG00000070010_ENST00000399523|hu_hu|hu_hu_hu_mus_False|18_18 (ssRNA)
RNA: GGGAGUUCUACAGUCCGACGAUCCUUCUCAUUGUAGUUGAUAGCAAUCACAUCUCCAGUCGUCAGACAGGCGAAGUUUCUCAAUGCAUUUUCUAAUACCGCUUUAGGGUUGGUAAUGUCCAGGAAGUCUGGGCUCUGAGGCUGCAACAGAGGAUUGAGCAUCA
B12: chr10:93459826:93459827:-_ENSMUSG00000036099_ENSMUST00000119818|mus_mus|FALSE|FALSE (ssRNA)
RNA: GGGAGUUCUACAGUCCGACGAUCUCCCCACACCAGCCAGGAGGACACAAUCCAGCACGUGGGAAACAUGAUGAGCAAACUAAUGAAGGCAAACAGCAGCGAGACAUCCCAAGUGUUCGGGGUUGCCAGGGAGCAGAGCGUUGGCAACAGAGGAUUGAGCAUCA
B13: chr7:140404665:140404666:+_ENSG00000090266_ENST00000247866|hu_hu|hu_hu_hu_mus_False|38_58 (ssRNA)
RNA: B9 RNA with U78A, C81U, G83A, U102G, A111U, C135A, U136G
B14: 179984994_179989092_2541_3pUTR_ENSG00000135837_ENST00000367607|human|control|control (ssRNA)
RNA: GGGAGUUCUACAGUCCGACGAUCAAGUCUUUUCUUGCAAGAGGCUGUGGAGGUUCUGAGAGAGACAUGUCACUACUGGAAGAUGCACUUGGGGGACGUUCCUGUACUUUGUUUUCUUUGUCAGAUUCUCCAGAUGGCUGAUACCAACAGAGGAUUGAGCAUCA

This experiment deals with T1, UNK ZnF1-3 (human, UniProt Q9C0B0 31-174).
T1 sequence: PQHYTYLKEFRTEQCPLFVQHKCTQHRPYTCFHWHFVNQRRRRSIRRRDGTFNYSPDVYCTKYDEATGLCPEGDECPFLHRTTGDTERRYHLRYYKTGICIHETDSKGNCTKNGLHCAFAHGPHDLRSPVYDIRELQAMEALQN
As to the kind of experiment: nsRBNS (natural sequence RNA bind-n-seq); RBNS binding buffer (assumed for nsRBNS): 25 mM Tris pH 7.5, 150 mM KCl, 3 mM MgCl2, 0.01% Triton X-100, 500 ug/ml BSA, 20 U/ml SUPERase-In, 4 C; UNK is unkempt and MSI1 is Musashi-1; names of the RNAs are library labels; protein concentration not given here; high values mean tight binding.
For B1, the binding signal came out at 1.27 enrichment R.
B2 gave a binding signal of 1.64 enrichment R.
The result for B3 reads 0.859 enrichment R; that for B4, 1.71 enrichment R; that for B5, 1.38 enrichment R.
Molecule B6 returned a binding signal of 1.18 enrichment R.
The molecule B7 displayed a binding signal of 0.68 enrichment R.
With B8 the figure was 1.01 enrichment R; with B9, 1.33 enrichment R; with B10, 0.976 enrichment R.
Molecule B11 showed a binding signal of 0.672 enrichment R.
The result for B12 reads 2.18 enrichment R; that for B13, 1.48 enrichment R.
The result for B14 reads 0.876 enrichment R.
